In the supplement of paper PMC4166925:
± gives the standard deviation of the averaged measurements. In all, about 33,000 sequences were measured (“E-score (dimensionless, -0.5 to 0.5)”: median about -0.046, highest 2% from about 0.36 on). This is one part of the list.

tested on: T1, SpTbr T-box DNA-binding domain (GST fusion); assay: PBM E-score of 8-mer (E-score (dimensionless, -0.5 to 0.5)); Tbr is Tbrain of the sea star Patiria miniata (Pm) or the sea urchin Strongylocentrotus purpuratus (Sp); higher = stronger binding preference; most listed sequences are background and not binding sites; conditions: the construct has about 5 more residues each side
T1 sequence: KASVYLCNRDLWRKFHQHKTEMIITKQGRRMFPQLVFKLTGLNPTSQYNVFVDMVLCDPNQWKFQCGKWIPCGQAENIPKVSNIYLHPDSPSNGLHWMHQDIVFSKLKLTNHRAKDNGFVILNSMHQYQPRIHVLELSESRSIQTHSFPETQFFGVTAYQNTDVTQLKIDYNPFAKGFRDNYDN
Method in brief: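 Primer extension turned Universal Agilent oligonucleotide arrays double-stranded. They were incubated with 200 nM protein in PBS (pH 7.5); the protein was a GST-fused Tbr T-box DNA-binding domain expressed in BL21 E. coli at 20 °C and purified on glutathione. Every ungapped 8-mer was scored from the scanned, quantified probe intensities, and the Universal PBM Analysis Suite gave each an enrichment E-score averaged over duplicate arrays.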

Sequence	PBM E-score of 8-mer
GAGCTTGC	-0.19 ± 0.0061
AACATTTC	-0.0421 ± 0.076
CCGACTCC	-0.189 ± 0.03
GGTAATCA	0.0652 ± 0.0063
TAAAAGGA	0.111 ± 0.022
CTTGCGTC	-0.011 ± 0.059
AAATCCAT	-0.13 ± 0.052
AGCTACAG	-0.0943 ± 0.026
ATGTGAAT	0.0698 ± 0.064
AGTTTACA	0.227 ± 0.01
AAAGAAGC	-0.193 ± 0.023
CCTCCTTC	-0.039 ± 0.045
CCAAGCGC	0.155 ± 0.025
ACAGCGCA	-1.5e-05 ± 0.028
ATCCGGCG	-0.12918 ± 9.2e-05
ATACGGAT	0.0271 ± 0.0067
GGACTGCC	-0.0237 ± 0.028
ATTAGCAC	0.368 ± 0.038
CTACCCCC	-0.382 ± 0.012
GAGCCGCA	-0.00751 ± 0.028
CCGACCGA	-0.2527 ± 0.002
GGACTATA	-0.00851 ± 0.018
CGAATTGC	0.148 ± 0.0032
AGGTACCG	-0.0809 ± 0.0053
TCGCGGAA	0.171 ± 0.024

Sequence	PBM E-score of 8-mer
GAATCTGC	-0.0922 ± 0.056
GATTTTGC	0.0964 ± 0.028
GCGACACC	0.432 ± 0.021
ACCCCTTC	0.0858 ± 0.032
CATCGCCG	-0.0375 ± 0.079
CCACCGGC	-0.0932 ± 0.04
CGTCTTTA	-0.184 ± 0.054
CCCTTGCC	-0.14 ± 0.0031
ATTCTTAA	-0.137 ± 0.08
CCGGGAAC	-0.0977 ± 0.11
CAGCACTC	-0.0116 ± 0.0032
ATCGGGTC	0.0101 ± 0.02
CGTTAGAG	-0.00014 ± 0.072
ATGTGGTA	-0.0475 ± 0.041
GCGAGAGA	0.203 ± 0.061
ACTGATCT	-0.141 ± 0.032
GAGGACAC	0.155 ± 0.015
ACCTCCAC	0.172 ± 0.038
GCTATCCA	0.0217 ± 0.0038
GCGGCAAC	0.181 ± 0.066
ACATGCGA	0.104 ± 0.028
TCGTCAGA	-0.00592 ± 0.0082
AGGATAGG	-0.0973 ± 0.081
GAGTTATA	-0.15 ± 0.078
GGCGAGGA	0.16 ± 0.036

Sequence	PBM E-score of 8-mer
CCCTTTTA	-0.0476 ± 0.07
GCCATACC	-0.145 ± 0.034
CGGACTAG	-0.03 ± 0.031
AGCCGGAG	-0.104 ± 0.047
AGGATCGA	-0.0329 ± 0.09
ACAGGCAT	-0.0336 ± 0.024
CCTGAACC	-0.209 ± 0.072
GTATACAC	-0.0205 ± 0.003
GGCAGCCC	-0.184 ± 0.038
CCATGTCA	-0.00826 ± 0.057
GAAGGCAC	0.0479 ± 0.015
CCTTGGAC	-0.195 ± 0.0061
CTTAGTGC	0.0877 ± 0.047
GGGGACAC	0.153 ± 0.039
AGCAAGCG	-0.0648 ± 0.046
GTTGCGCA	0.104 ± 0.017
GTGTCCGA	0.171 ± 0.069
AAGACCTT	-0.259 ± 0.0063
ATTCCGTC	0.00686 ± 0.032
TGTCCAAA	-0.0031 ± 0.015
AGGAGGAT	-0.11 ± 0.022
CACCGGGC	-0.164 ± 0.12
GGGGGTGA	0.289 ± 0.03
AACCCACT	-0.195 ± 0.0064
AAGCCTAC	-0.225 ± 0.013

Sequence	PBM E-score of 8-mer
CCCGCTTC	0.139 ± 0.082
GTTAAAAA	-0.0311 ± 0.096
ATCAATTC	0.0449 ± 0.052
ACCAGCCT	-0.119 ± 0.023
GCTTGTCC	-0.146 ± 0.0018
CCAGCGAG	0.0748 ± 0.06
CTTGGAAA	-0.115 ± 0.045
GCCACCGA	0.0804 ± 0.072
AGACCGAC	-0.0541 ± 0.047
AGCACTGA	0.0628 ± 0.0091
ACGTTATC	0.036 ± 0.0067
AACAGCCT	0.104 ± 0.021
ATCCTGAC	-0.0942 ± 0.08
CCCAGGGA	-0.213 ± 0.062
CGAAATCC	-0.0145 ± 0.03
TGGAGTAA	0.0229 ± 0.0036
CGCTAACA	0.32 ± 0.016
TCTTGCAA	0.0588 ± 0.0033
ATATTTTA	-0.179 ± 0.068
CGAGTATA	-0.0211 ± 0.048
ACATATGC	-0.0534 ± 0.018
ATCAGTAG	-0.176 ± 0.079
ATCCGACC	-0.3 ± 0.0094
ACTGCGCA	0.0181 ± 0.1
AATTACTG	-0.048 ± 0.061

Sequence	PBM E-score of 8-mer
ACCCCATC	-0.115 ± 0.019
CATGGACC	-0.161 ± 0.073
ACAGTTGA	0.2 ± 0.059
AGGTAAAG	-0.026 ± 0.018
CCCATAAC	-0.138 ± 0.056
AGTTTATA	-0.0231 ± 0.091
ATGGCGTC	0.0934 ± 0.034
AGCTTCCG	-0.148 ± 0.022
CCATGTCG	0.189 ± 0.0036
CGAATTAA	-0.0504 ± 0.051
AAACGTGC	0.232 ± 0.0069
ACAAGCCC	-0.233 ± 0.0026
CCGGACCA	-0.19 ± 0.036
ACTTGCGA	0.388 ± 0.021
AAGTATAT	-0.147 ± 0.046
TCGCGCGA	0.379 ± 0.0069
AGAACTAG	-0.0455 ± 0.017
ATTGATCC	-0.00647 ± 0.062
TAACGTTA	-0.0796 ± 0.045
CGAATACC	0.123 ± 0.0052
AGATCCAA	-0.1412 ± 0.0004
CAAGTGCG	0.395 ± 0.02
CGCAGAAG	-0.00467 ± 0.042
ATACCGGA	-0.105 ± 0.062
AGGCCGGG	-0.205 ± 0.056

Sequence	PBM E-score of 8-mer
AGATCTCC	-0.135 ± 0.037
GGGTCGAA	0.126 ± 0.016
GCCTTGTA	-0.00667 ± 0.04
CTATCGCA	0.218 ± 0.0022
ATGTGACA	0.409 ± 0.0051
CGTAGGTA	-0.321 ± 0.013
CCCAATCA	-0.0262 ± 0.04
AAACTCAC	0.0177 ± 0.054
ACGACTGC	-0.0612 ± 0.017
GAGCCACA	0.0812 ± 0.07
CGCCAAAG	0.166 ± 0.036
ATAGATTG	-0.173 ± 0.027
CTGTGCTA	0.0802 ± 0.026
TTGCCAAA	0.0607 ± 0.12
AACCCTGA	-0.128 ± 0.029
TACAAACA	0.11 ± 0.032
CATGCCTA	-0.322 ± 0.053
CCCTCGCC	-0.0707 ± 0.054
ATCGATTG	-0.0013 ± 0.0092
AACGCCAG	0.0487 ± 0.017
GCAAGGGC	-0.278 ± 0.006
CCGGCACC	0.28 ± 0.0067
CTTATGCC	-0.11 ± 0.018
CACGCGCG	0.313 ± 0.059
CATCCCGG	-0.301 ± 0.03

Sequence	PBM E-score of 8-mer
ACCTGTAG	0.0967 ± 0.048
GTGGCAGA	-0.0126 ± 0.032
ATGTGCCG	0.175 ± 0.032
ACAAGAAG	-0.17 ± 0.019
ATAAGAGG	-0.103 ± 0.051
GAACATGA	-0.126 ± 0.035
CCGCTTAC	-0.0299 ± 0.039
CGAAATTA	0.0611 ± 0.085
CACGACCA	0.0842 ± 0.067
CTACCTGC	-0.023 ± 0.023
ATCCGAGA	-0.0813 ± 0.00083
AGGTATAG	-0.139 ± 0.015
GCGTAGGA	-0.0865 ± 0.046
CTGAACAC	-0.0318 ± 0.035
AGCCATCC	-0.152 ± 0.081
AGCTGGGA	-0.0684 ± 0.039
CACAGCCA	0.064 ± 0.088
AGGCCGTC	-0.137 ± 0.11
GAGTACCC	-0.0313 ± 0.076
CGCCCAGC	0.137 ± 0.1
GCAACGCC	0.208 ± 0.027
ATATTAAG	-0.116 ± 0.036
